# Reference: paper PMC4336329 (PLoS ONE, 2015)
# Out of some 310,000 compounds screened, about 14,000 (4.5%) showed an effect of 50% or more. The effect is printed as a negative number. The list shows a part of the results.
# Molecular target: human ether-à-go-go-related gene (hERG) potassium channel (human, UniProt Q12809)
# Assay: primary screen, population patch clamp on CHO cells stably expressing hERG
# 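Also: peak tail current of the secondary pulse compared with the same well before compound.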
# human ether-à-go-go-related gene (hERG) potassium channel, sequence (Q12809 whole entry, looked up): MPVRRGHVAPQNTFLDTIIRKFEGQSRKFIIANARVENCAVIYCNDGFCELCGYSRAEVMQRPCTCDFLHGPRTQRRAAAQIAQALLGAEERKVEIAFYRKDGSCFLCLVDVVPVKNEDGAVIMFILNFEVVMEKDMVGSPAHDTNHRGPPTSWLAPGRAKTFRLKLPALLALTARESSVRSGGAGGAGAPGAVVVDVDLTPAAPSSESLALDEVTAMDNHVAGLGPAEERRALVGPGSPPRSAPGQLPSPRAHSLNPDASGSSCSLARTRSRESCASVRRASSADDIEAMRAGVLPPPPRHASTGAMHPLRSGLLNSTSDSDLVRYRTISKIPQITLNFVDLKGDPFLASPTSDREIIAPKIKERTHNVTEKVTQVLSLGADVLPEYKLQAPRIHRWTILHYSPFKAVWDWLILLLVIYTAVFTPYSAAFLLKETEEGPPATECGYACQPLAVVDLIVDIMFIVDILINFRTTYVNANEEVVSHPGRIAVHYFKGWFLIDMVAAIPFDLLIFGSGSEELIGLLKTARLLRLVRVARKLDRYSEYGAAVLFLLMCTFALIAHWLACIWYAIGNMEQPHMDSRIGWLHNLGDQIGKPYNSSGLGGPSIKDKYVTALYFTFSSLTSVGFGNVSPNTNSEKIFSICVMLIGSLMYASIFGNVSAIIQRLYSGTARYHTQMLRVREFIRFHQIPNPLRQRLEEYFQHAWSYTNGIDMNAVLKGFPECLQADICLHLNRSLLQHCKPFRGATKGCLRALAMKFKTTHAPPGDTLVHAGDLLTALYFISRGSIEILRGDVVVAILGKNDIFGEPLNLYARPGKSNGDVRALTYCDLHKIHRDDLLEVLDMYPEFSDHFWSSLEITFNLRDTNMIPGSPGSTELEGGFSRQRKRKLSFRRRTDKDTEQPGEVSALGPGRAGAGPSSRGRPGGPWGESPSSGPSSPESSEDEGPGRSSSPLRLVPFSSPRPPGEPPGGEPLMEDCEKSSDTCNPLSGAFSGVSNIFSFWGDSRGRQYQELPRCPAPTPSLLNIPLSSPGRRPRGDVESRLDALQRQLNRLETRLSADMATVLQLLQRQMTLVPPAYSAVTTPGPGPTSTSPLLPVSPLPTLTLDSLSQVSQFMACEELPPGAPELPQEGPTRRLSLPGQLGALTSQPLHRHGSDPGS
row,SMILES,"hERG current change (%, negative = inhibition) at 10uM [%]"
1,O=C(NCCCN1CCCC1=O)c1cc(NS(=O)(=O)c2ccc(F)cc2)cc(NS(=O)(=O)c2ccc(F)cc2)c1,-4.88
2,O=C(Oc1c(Cl)cc(Cl)c2cccnc12)c1cccc([N+](=O)[O-])c1,17.5
3,Cc1c(Cl)cccc1N=C(N)N=C(N)N,7.51
4,O=C1c2ccccc2NC(c2cccnc2)N1c1ccccc1F (stereo not drawn),6.9
5,COc1cc(-c2nnc(SCC(=O)c3ccc(C)cc3)o2)cc(OC)c1OC,-2.59
6,CNC(=O)COC(=O)c1cc(F)c(F)cc1Cl,14.4
7,O=C(CCNC(=O)c1ccc([N+](=O)[O-])cc1)Nc1cccc(S(=O)(=O)N2CCCCC2)c1,-55.2
8,O=C(OCC(=O)N1CCCc2ccccc21)c1cc(Cl)ccc1O,21.9
9,Cc1ccc(S(=O)(=O)Nc2nncs2)cc1,-1.67
10,CCN(CC)S(=O)(=O)c1ccc(S(=O)(=O)N(CC(=O)Nc2ccccc2)Cc2ccco2)cc1,-6.44
11,Cn1c(=O)c2c(-c3ccc(C(C)(C)C)cc3)n(N3CCOCC3)cc2n(C)c1=O,-26.7
12,COc1cc(OC)cc(C(=O)N[C@H](C(=O)Nc2ccccc2N2CCOCC2)C(C)C)c1,-28.2
13,CC1=C(C(=O)OCc2ccccc2)C(c2cccc(F)c2)NC(=O)N1 (stereo not drawn),9.86
14,COc1ccc(N2CCN(C(=O)CSc3ncn[nH]3)CC2)cc1,5.92
15,Cc1ccc(C2=NNC(c3ccc(Cl)cc3)=Nc3ccccc32)o1,-10.7
16,O=C(NCCOc1ccccc1)c1cc2ccccc2o1,-2.6
17,CN1CCN(c2ccncc2S(=O)(=O)N2CCCCC2)CC1,14.7
18,COc1ccc(C(N)CCc2ccco2)cc1.Cl (stereo not drawn),1.39
19,Cc1ccc(C(=O)Nc2cc3c(oc2=O)CCCC3=O)cc1,-2.47
20,CCOc1cc(N2CCOCC2)c(OCC)cc1NC(=O)Cc1ccc(OC)c(OC)c1,2.9
21,CC1CCc2sc(-c3n[nH]c(=S)o3)cc2C1 (stereo not drawn),17.7
22,O=C(c1cccc([N+](=O)[O-])c1)N1CCc2ccccc21,17.5
23,O=C1CC(Sc2ncccc2C(=O)O)C(=O)N1 (stereo not drawn),6.62

row,SMILES,"hERG current change (%, negative = inhibition) at 10uM [%]"
1,O=C(CCCCCN1C(=O)c2cccc3cccc(c23)C1=O)NCc1ccco1,13.2
2,CC(C(=O)Nc1ccc(C#N)cc1)N(C)CC(=O)Nc1ccccc1Br (stereo not drawn),-17
3,Cn1c(=O)c2c(nc(OCc3cccnc3)n2Cc2ccccc2)n(C)c1=O,-32.8
4,C=CCn1c(SCc2ccccc2Cl)nnc1-c1sc2nc(C)cc(C)c2c1N,13.2
5,CCO[C@H]1OC(C(N)=O)=C[C@@H](C2CCCCC2)[C@@H]1CCCO,9.79
6,C[N+]1(C)CCOC(O)(c2ccc(-c3ccc(C4(O)C[N+](C)(C)CCO4)cc3)cc2)C1.[Br-] (stereo not drawn),12
7,N#CCCN(Cc1ccccc1)C(=O)Nc1ccc2c(c1)CCO2,6.37
8,Cc1ccc(C2c3c(-c4ccccc4O)n[nH]c3C(=O)N2Cc2ccncc2)cc1 (stereo not drawn),10.8
9,COc1ccc(N(CC(=O)O)S(=O)(=O)c2ccc(C)cc2)cc1Cl,16.3
10,Cc1ccccc1C(=O)OCc1nnc(-c2ccc(Cl)cc2)o1,-5.09
11,CCN1C(=O)c2cccc3c(S(=O)(=O)NCC4CCCO4)ccc1c23 (stereo not drawn),1.95
12,CCCN1CCC(=NNc2ccc(S(=O)(=O)N(CC)CC)cc2[N+](=O)[O-])CC1,-27.5
13,O=C(NCCC1=CCCCC1)c1ccc(Cl)c(S(=O)(=O)N2CCOCC2)c1,-39.6
14,CCc1cc(=O)[nH]c(-n2[nH]c(-c3ccccc3)cc2=O)n1,22.6
15,CC(=O)c1cc(C#N)c(Oc2ccccc2)nc1C,9.67
16,CC(SC(=S)N1CCOCC1)C(=O)O (stereo not drawn),8.03
17,CC(C)Cn1c(-c2ccccc2)nc(=S)c2c1CCCC2,20.9
18,CC(CC(=O)N1CCN(C(=O)c2ccccc2)CC1)c1ccccc1 (stereo not drawn),13.7
19,CCOC(=O)C(C)n1cnc2c(cnn2-c2ccc(Cl)cc2)c1=O (stereo not drawn),5.8
20,Cc1ccc(OCC(=O)OCc2c(C)noc2C)cc1C,-15
21,Cn1c(=O)c2cn(Cc3ccc(Cl)cc3)cc2n(C)c1=O,-1.75
22,CN(C)CC(C)(C)CNS(=O)(=O)c1ccc(Cl)s1,10.2
